Results from patent US20130059385A1, “METHODS OF GENERATING PLURIPOTENT STEM CELLS” (THE SCRIPPS RESEARCH INSTITUTE, priority 2010, published 2013).

System: OG2 MEFs transduced with Oct4 and Klf4
Assay: Reprogramming of MEFs transduced by Oct4 and Klf4 only (GFP-positive iPS colonies)
Assay type: cell-based, mouse
Conditions: 10 μM CHIR99021, 4-5 weeks after Oct4/Klf4 transduction, average
From the text: FIG. 2. […] Scale bars, 20μm.
Cell Culture and Viral Transduction: MEFs were derived from 12952/SvPasCrlf and ROSA26^+/−/OG2^+/− mice according to the protocol reported on WiCell Research Institute website: “Introduction to human embryonic stem cell culture methods”. ROSA26^+/−/OG2^+/− transgenic mice carry GFP reporter gene under the control of the Oct4 promoter (Oct4-GFP) and the ubiquitously expressed neo/lacZ transgene [Do J T, Scholer H R, Stem Cells, 22:941-949 (2004)]. Animal experiments were performed according to the Animal Protection Guidelines of the Max Planck Institute for Biomolecular Research, Germany. […] MEFs transduced with Oct4/Klf4/Sox2 (1×10^4 cells/well together with 10^5 cells/well CF1 feeders in 6-well plates) were then treated with GSK-3 inhibitor CHIR99021 (Stemgent) for two weeks, and EGFP positive colonies were picked up at the third week after treatment. MEFs transduced with Oct4/Klf4 (1×10^5 cells/well in 6-well plates) were treated with 10 μM CHIR99021 for four weeks, GFP positive colonies were picked up and expanded at the fourth to fifth week after treatment.

In the case of `Cc1c[nH]c(-c2cnc(NCCNc3ccc(C#N)cn3)nc2-c2ccc(Cl)cc2Cl)n1` [CHIR99021], the “GFP positive colonies out of 10^5 OG2 MEFs” value is reported as “about six”.
